Data on one molecule can be found in the supplement of paper PMC8728848.

Common to all, as to experiment: glycan array binding signal (z-score within array); higher = stronger binding
What all share (conditions): glycan notation: IUPAC condensed, linker removed; mutation: W10H

The target of test [1] is GlcNAc(b1-3)Gal(b1-4)GlcNAc(b1-3)Gal(b1-4)GlcNAc(b1-2)Man(a1-3)[GlcNAc(b1-3)Gal(b1-4)GlcNAc(b1-3)Gal(b1-4)GlcNAc(b1-2)Man(a1-6)]Man(b1-4)GlcNAc(b1-4)GlcNAc. In outline: (§1)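 The binding signal is a Z-score computed within each array and averaged over linkers. Arrays of the same protein sequence at different concentrations or buffers were also averaged together. Data originate from 3228 arrays in the Consortium for Functional Glycomics database, kept only where the protein sequence was available.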

Test [2] concerns the target GlcNAc(b1-3)Gal(b1-4)GlcNAc(b1-3)Gal(b1-4)GlcNAc(b1-2)Man(a1-3)[GlcNAc(b1-3)Gal(b1-4)GlcNAc(b1-3)Gal(b1-4)GlcNAc(b1-2)Man(a1-6)]Man(b1-4)GlcNAc(b1-4)[Fuc(a1-6)]GlcNAc. In outline:
as §1

Test [3] deals with GlcNAc(b1-3)Gal(b1-4)GlcNAc(b1-3)Gal(b1-4)GlcNAc(b1-2)[GlcNAc(b1-3)Gal(b1-4)GlcNAc(b1-3)Gal(b1-4)GlcNAc(b1-6)]Man(a1-6)[GlcNAc(b1-3)Gal(b1-4)GlcNAc(b1-3)Gal(b1-4)GlcNAc(b1-2)Man(a1-3)]Man(b1-4)GlcNAc(b1-4)[Fuc(a1-6)]GlcNAc. The method, boiled down: as §1
Test [4] deals with GlcNAc(b1-3)Gal(b1-4)GlcNAc(b1-3)Gal(b1-4)GlcNAc(b1-3)Gal(b1-4)GlcNAc(b1-2)Man(a1-3)[GlcNAc(b1-3)Gal(b1-4)GlcNAc(b1-3)Gal(b1-4)GlcNAc(b1-3)Gal(b1-4)GlcNAc(b1-2)Man(a1-6)]Man(b1-4)GlcNAc(b1-4)GlcNAc. In outline:
as §1

The target of test [5] is GlcNAc(b1-3)Gal(b1-4)GlcNAc(b1-3)Gal(b1-4)GlcNAc(b1-3)Gal(b1-4)GlcNAc(b1-2)Man(a1-3)[GlcNAc(b1-3)Gal(b1-4)GlcNAc(b1-3)Gal(b1-4)GlcNAc(b1-3)Gal(b1-4)GlcNAc(b1-2)Man(a1-6)]Man(b1-4)GlcNAc(b1-4)[Fuc(a1-6)]GlcNAc. In outline: as §1
The target in test [6] is GlcNAc(b1-3)Gal(b1-4)GlcNAc(b1-3)Gal(b1-4)GlcNAc(b1-3)Gal(b1-4)GlcNAc(b1-2)[GlcNAc(b1-3)Gal(b1-4)GlcNAc(b1-3)Gal(b1-4)GlcNAc(b1-3)Gal(b1-4)GlcNAc(b1-6)]Man(a1-6)[GlcNAc(b1-3)Gal(b1-4)GlcNAc(b1-3)Gal(b1-4)GlcNAc(b1-3)Gal(b1-4)GlcNAc(b1-2)Man(a1-3)]Man(b1-4)GlcNAc(b1-4)[Fuc(a1-6)]GlcNAc. In outline: as §1
Test [7] has as its target GlcNAc(b1-3)Gal(b1-4)GlcNAc(b1-3)Gal(b1-4)GlcNAc(b1-3)Gal(b1-4)GlcNAc(b1-3)Gal(b1-4)GlcNAc(b1-2)Man(a1-3)[GlcNAc(b1-3)Gal(b1-4)GlcNAc(b1-3)Gal(b1-4)GlcNAc(b1-3)Gal(b1-4)GlcNAc(b1-3)Gal(b1-4)GlcNAc(b1-2)Man(a1-6)]Man(b1-4)GlcNAc(b1-4)GlcNAc. In outline: as §1
The target of test [8] is GlcNAc(b1-3)Gal(b1-4)GlcNAc(b1-3)Gal(b1-4)GlcNAc(b1-3)Gal(b1-4)GlcNAc(b1-3)Gal(b1-4)GlcNAc(b1-2)Man(a1-3)[GlcNAc(b1-3)Gal(b1-4)GlcNAc(b1-3)Gal(b1-4)GlcNAc(b1-3)Gal(b1-4)GlcNAc(b1-3)Gal(b1-4)GlcNAc(b1-2)Man(a1-6)]Man(b1-4)GlcNAc(b1-4)[Fuc(a1-6)]GlcNAc. In outline: as §1
Test [9] deals with GlcNAc(b1-3)Gal(b1-4)GlcNAc(b1-3)Gal(b1-4)GlcNAc(b1-3)Gal(b1-4)GlcNAc(b1-3)Gal(b1-4)GlcNAc(b1-2)[GlcNAc(b1-3)Gal(b1-4)GlcNAc(b1-3)Gal(b1-4)GlcNAc(b1-3)Gal(b1-4)GlcNAc(b1-3)Gal(b1-4)GlcNAc(b1-6)]Man(a1-6)[GlcNAc(b1-3)Gal(b1-4)GlcNAc(b1-3)Gal(b1-4)GlcNAc(b1-3)Gal(b1-4)GlcNAc(b1-3)Gal(b1-4)GlcNAc(b1-2)Man(a1-3)]Man(b1-4)GlcNAc(b1-4)[Fuc(a1-6)]GlcNAc. In outline: as §1
The target of test [10] is GlcNAc(b1-3)Gal(b1-4)GlcNAc(b1-3)Gal(b1-4)GlcNAc(b1-3)GalNAc. In outline: as §1
In test [11] the target is GlcNAc(b1-3)Gal(b1-4)GlcNAc(b1-3)GalNAc. The method, boiled down:
as §1

Test [12] concerns the target GlcNAc(b1-3)Gal(b1-4)GlcNAc(b1-3)[GlcNAc(b1-3)Gal(b1-4)GlcNAc(b1-3)]GalNAc. In outline: as §1
The target in test [13] is GlcNAc(b1-3)Gal(b1-4)GlcNAc(b1-6)[Gal(b1-3)]GalNAc. The method, boiled down: as §1
In test [14] the target is GlcNAc(b1-3)Gal(b1-4)GlcNAc(b1-6)[GlcNAc(b1-3)Gal(b1-3)]GalNAc. The method, boiled down:
as §1

Test [15] has as its target GlcNAc(b1-3)Gal(b1-4)GlcNAc(b1-6)[GlcNAc(b1-3)]Gal(b1-4)GlcNAc. The method, boiled down:
as §1

A further test has as its target GlcNAc(b1-3)GalNAc. The method, boiled down:
as §1

A further test addresses GlcNAc(b1-3)Man. The method, boiled down: as §1
Test [16] has as its target GlcNAc(b1-3)[GlcNAc(b1-4)][GlcNAc(b1-6)]GlcNAc. The method, boiled down:
as §1

Test [17] has as its target GlcNAc(b1-3)[GlcNAc(b1-6)]Gal(b1-4)GlcNAc. In outline:
as §1

In test [18] the target is GlcNAc(b1-3)[GlcNAc(b1-6)]GalNAc. In outline:
as §1

For test [19], the target named is GlcNAc(b1-4)Gal(b1-4)GlcNAc. The method, boiled down:
as §1

The target in the next test is GlcNAc(b1-4)GlcNAc. The method, boiled down:
as §1

The target in test [20] is GlcNAc(b1-4)GlcNAc(b1-4)GlcNAc. The method, boiled down:
as §1

Some of the results follow.

B1: Banana lectin (Musa acuminata) (protein)
chain: MNGAIKVGAHGGNGGSAFDMGPAYRIISVKIFSGDVVDGVDVTFTYYGKTETRHYGGSGGTPHEIVLQEGEYLVGMAGEVANYHGAVVLGKLGFSTNKKAYGPFGNTGGTPFSLPIAAGKISGFFGRGGKFLDAIGVYLEPLEHHHHHH
With B1, the “glycan array binding signal (z-score)” value in test [1] is -0.172; in [2], -0.165; in test [3], -0.098; in test [4], -0.109; in test [5], -0.128; in test [6] it was -0.002. Also, the “glycan array binding signal (z-score)” value in test [7] was -0.097; in [8], -0.085; in test [9], -0.035; in test [10], -0.168; in test [11] it was -0.16; in test [12], -0.132. In addition, the “glycan array binding signal (z-score)” value was -0.167 in test [13]; -0.1 in test [14]; -0.197 in [15]; -0.175 with GlcNAc(b1-3)GalNAc; -0.144 with GlcNAc(b1-3)Man; -0.165 in test [16]. In addition, the “glycan array binding signal (z-score)” value in test [17] was -0.143; in test [18] it was -0.153; in [19] it was -0.146; with GlcNAc(b1-4)GlcNAc, -0.174; in test [20], -0.159.
